# Measurements from PubChem BioAssay AID1345083 (National Center for Advancing Translational Sciences (NCATS), 2018).
# Out of some 94,000 compounds screened, about 6,200 (6.6%) were called active. The shares of active, inactive and inconclusive entries below differ from those in the screen. Calls come from the whole dose curve; as a rule, active = well fitted inhibition curve with a large enough effect; inconclusive = small, poorly fitted or top-dose-only effect; inactive = flat fitted curve, though single readings scatter. Potencies beside an inconclusive call are fits to weak or partial responses and may not hold up.
# Assay: Cytotoxic Profiling in HEK 293 Cell Line of Diverse Libraries Using Quantitative High-Throughput Screening; note: nearly all actives have a fitted effect of over 60% in size
# Conditions: HEK 293 viability, ATP luminescence (CellTiter-Glo), 48-72 h; series mostly up to 115 µM
# Summary of the method: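 ATP-coupled CellTiter-Glo luminescence served as viability read-out, recorded 10 min after reagent addition at room temperature. HEK 293 cells, 250 cells/well, had been incubated with pintool-transferred compound for 48 or 72 hr at 37 degree Celsius.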
# Potency is the fitted concentration of half-maximal effect; tags give direction and shape of the fitted curve.
row,SMILES,Potency
1,O=C(NC[C@H]1C[C@@H]2CCN1C[C@@H]2CN1CCC(Cc2ccccc2)CC1)c1ccc(C(F)(F)F)cc1,active: 79.4 µM
2,O=C(O)COCC(=O)N1C[C@@H]2C[C@H](C1)c1ccc(-c3cc4ccccc4s3)c(=O)n1C2,inactive
3,COc1cccc(CC(=O)N2CCCCCC2CN2CCC(OC)CC2)c1 (configuration not stated),inactive
4,COc1ccc(C(=O)NC[C@H]2C[C@@H]3CCN2C[C@@H]3c2cc(-c3ccccc3Br)nc(C)n2)cc1,"inconclusive: 44.7 µM [inhibitor, partial curve, poor fit]"
5,COc1cc2c(cc1Oc1cccc(N(C)C)c1)NC(=O)C21CCN(Cc2ccccc2)CC1,active: 28.2 µM
6,CC[C@H]1CN2CC[C@H]1C[C@@H]2CNC(=O)Nc1ccc(Oc2ccccc2)cc1,active: 25.1 µM
7,COc1cc2c(cc1Oc1cccc(N(C)C)c1)NC(=O)C21CCN(C(=O)CN2CCOCC2)CC1,"inconclusive: 50.1 µM [inhibitor, partial curve, poor fit]"
8,COc1ccc2c(c1)C1(CCN(C(=O)c3ccc(C)c(F)c3)C1)C(=O)N2C (configuration not stated),"inconclusive: 50.1 µM [inhibitor, partial curve, poor fit]"
9,Cc1nc(-c2ccc(N(C)C)cc2)cc([C@H]2CN3CC[C@H]2C[C@@H]3CNC(=O)C(C)(C)C)n1,active: 56.2 µM
10,c1cc2nc(C3CCNCC3)[nH]c2cn1,inactive
11,Cc1cc(C(=O)N2[C@H]3CC[C@@H]2c2cnc(-c4ccc(F)cc4)nc2C3)n[nH]1,"inconclusive: 10 µM [inhibitor, full curve, poor fit]"
12,O=C(COc1ccccc1)N1C[C@@H]2C[C@H](C1)c1c(-c3ccccc3F)ccc(=O)n1C2,inactive
13,CC(=O)c1ccc(NC(=O)NC[C@H]2C[C@@H]3CCN2C[C@@H]3CN2CCSCC2)cc1,inactive
14,COc1cccc(CC(=O)N2[C@H]3CC[C@@H]2c2cnc(-c4ccc(F)cc4)nc2C3)c1,active: 31.6 µM
15,COc1ccc(-c2cc([C@H]3CN4CC[C@H]3C[C@@H]4CNC(=O)N3CCOCC3)n(C)n2)cc1OC,inactive
16,Cn1nccc1CN1CCCC2(CC(c3ccccn3)=NO2)C1 (configuration not stated),"inconclusive: 79.4 µM [inhibitor, partial curve, poor fit]"
17,Cc1cccc([C@H]2C[C@@H](O)[C@@H](O)[C@@H]2NCC2CCCC2)c1,active: 50.1 µM
18,O=C(NC1CCCCC1)N1C[C@@H]2C[C@H](C1)c1c(-c3cccs3)ccc(=O)n1C2,inactive
19,CN1CCN(C(=O)Cc2c[nH]c3ncc(-c4cccc(O)c4)cc23)CC1,inactive
20,Cc1nc(-c2cccs2)cc([C@H]2CN3CC[C@H]2C[C@@H]3CNC(=O)c2ccc(N(C)C)cc2)n1,active: 35.5 µM
21,CN1Cc2ccccc2-n2ccnc2C12CCN(C(=O)Cc1cccs1)CC2,inactive
22,O=C(c1ccc(F)cc1)N1CCC(C(=O)O)(c2ccccc2)CC1,"inconclusive: 112 µM [inhibitor, single point]"
23,O=C1CS(=O)C2(CCNCC2)N1C1CCCC1 (configuration not stated),inactive

row,SMILES,Potency
1,CC(C)CCN1CCC2CC(=O)NCCC2C1 (configuration not stated),inactive
2,COCCNC(=O)[C@H]1CN2CC[C@H]1C[C@@H]2Cn1cc(CC2CCCCC2)nn1,inactive
3,C=C[C@H]1CN2CC[C@H]1C[C@@H]2CNS(=O)(=O)Cc1ccccc1,inactive
4,CCCN1CCNc2cc(Nc3ccccc3)ncc2C1,active: 89.1 µM
5,COc1ccc2c(c1)C1(CCN(C(=O)Nc3ccc(OC)c(OC)c3)C1)C(=O)N2 (configuration not stated),inactive
6,O=C(Nc1ccccc1)Nc1ccc2n(c1=O)C[C@H]1C[C@@H]2CN(C(=O)c2ccccc2)C1,"inconclusive: 126 µM [inhibitor, single point]"
7,COc1cc2c(cc1OCc1ccccc1)NC(=O)C21CCN(c2ccccn2)CC1,"inconclusive: 31.6 µM [inhibitor, partial curve, poor fit]"
8,C=CCNC(=O)NC[C@H]1C[C@@H]2CCN1C[C@@H]2c1cc(C(CC)CC)nc(-c2ccncc2)n1,"inconclusive: 89.1 µM [inhibitor, single point]"
9,C=C[C@H]1CN2CC[C@H]1C[C@@H]2CNC(=O)c1ccc(N(C)C)cc1,"inconclusive: 126 µM [inhibitor, single point]"
10,O=C(NCC[C@@H]1C[C@@H]2C=C[C@H]1C2)c1cn(Cc2ccccc2Cl)nn1,inactive
11,CCCS(=O)(=O)N1C[C@@H]2C[C@H](C1)c1c(-c3ccc(Cl)cc3)ccc(=O)n1C2,inactive
12,Cc1ccc(C(=O)NC[C@H]2C[C@@H]3CCN2C[C@@H]3c2cc(C3CCCCC3)nn2C)cc1,"inconclusive: 22.4 µM [inhibitor, full curve, poor fit]"
13,COc1ccc([C@@H]2CN(c3nccc(C)n3)[C@@H]3C4CCN(CC4)[C@@H]32)cc1,inactive
14,CNC1CCOCC1,inactive
15,Cc1noc(C)c1CC(=O)N1[C@H]2CC[C@@H]1c1cnc(-c3ccc(F)cc3)nc1C2,"inconclusive: 44.7 µM [inhibitor, partial curve, poor fit]"
16,O=S(=O)(NC[C@H]1C[C@@H]2CCN1C[C@@H]2CN1CCCCC1)c1ccc(Cl)cc1,"inconclusive: 70.8 µM [inhibitor, partial curve]"
17,Cc1ccc(C(=O)NC[C@H]2C[C@@H]3CCN2C[C@@H]3c2cc(-c3ccc(F)cc3)nn2C)cc1,active: 25.1 µM
18,CC(=O)c1ccc(NC(=O)OC[C@H]2C[C@@H]3CCN2C[C@@H]3c2cc(C3CCCC3)nc(-c3ccncc3)n2)cc1,active: 31.6 µM
19,COc1cccc(Nc2cc3c(cn2)CN(C)CCN3)c1,"inconclusive: 126 µM [inhibitor, partial curve, poor fit]"
20,COC[C@H]1CCCN1C[C@H]1CN2CC[C@H]1C[C@@H]2CNC(=O)c1ccc(N(C)C)cc1,"inconclusive: 100 µM [inhibitor, partial curve, poor fit]"
21,O=[S+]1([O-])NCC2(CCN(CC3CC3)C2)Oc2ncccc21 (configuration not stated),"inconclusive: 112 µM [inhibitor, single point]"
22,CCc1ccc(C(=O)N2CCC3(CC2)c2nccn2-c2ccccc2CN3C)cc1,"inconclusive: 50.1 µM [inhibitor, partial curve, poor fit]"
23,Cc1ncc2c(n1)C[C@@H]1CC[C@H]2N1S(=O)(=O)c1ccc2c(c1)C(C)(C)C(=O)N2,inactive

row,SMILES,Potency
1,Cc1nc(-c2ccccc2)cc([C@H]2CN3CC[C@H]2C[C@@H]3CNS(=O)(=O)Cc2ccccc2)n1,active: 79.4 µM
2,c1ccc(CN2CCCC3(CC(c4ccccn4)=NO3)C2)nc1 (configuration not stated),inactive
3,CSc1ccc(-c2ccc(=O)n3c2[C@@H]2C[C@@H](CN(C(=O)Nc4cccc(F)c4)C2)C3)cc1,"inconclusive: 79.4 µM [inhibitor, partial curve, poor fit]"
4,O=[S+]1([O-])NC2(CCN(Cc3ccncc3)C2)CNc2ccccc21 (configuration not stated),inactive
5,COc1cc2c(cc1Oc1cccc(N(C)C)c1)NC(=O)C21CCN(c2ncccn2)CC1,"inconclusive: 56.2 µM [inhibitor, partial curve, poor fit]"
6,O=C(c1cccs1)N1C[C@@H]2C[C@H](C1)c1c(-c3ccc(Cl)cc3)ccc(=O)n1C2,inactive
7,CCOC(=O)[C@H]1CN([S+](C)(=O)[O-])[C@]2(C)C(=O)Nc3ccccc3[C@H]12,"inconclusive: 100 µM [inhibitor, single point]"
8,COCC(=O)NC[C@H]1C[C@@H]2CCN1C[C@@H]2c1cc(-c2ccc3ccccc3c2)nn1C,active: 50.1 µM
9,CN(C)c1ccc(CN2CCC3(CC2)C(=O)Nc2ccccc23)cc1,"inconclusive: 112 µM [inhibitor, single point]"
10,O=C(C1CCC1)N1[C@H]2CC[C@@H]1c1cnc(-c3ccc(F)cc3)nc1C2,"inconclusive: 35.5 µM [inhibitor, partial curve, poor fit]"
11,CC(=O)c1ccc(NC(=O)NC[C@H]2C[C@@H]3CCN2C[C@@H]3CN(C)Cc2ccccc2)cc1,active: 100 µM
12,Cc1ccc(-c2ccccc2CN2CCN(C(=O)Cc3ccc(F)cc3)CC2)cc1Cl,"inconclusive: 50.1 µM [inhibitor, partial curve, poor fit]"
13,O=C1NCCOCCN[C@H]2CCC[C@@H]12,inactive
14,Cn1nc(C2CCCCC2)cc1[C@H]1CN2CC[C@H]1C[C@@H]2CNC(=O)NCc1ccccc1,active: 79.4 µM
15,COc1ccc(OC)c(S(=O)(=O)NC[C@H]2C[C@@H]3CCN2C[C@@H]3c2cc(-c3cccs3)nn2C)c1,"inconclusive: 79.4 µM [inhibitor, partial curve, poor fit]"
16,Cn1cccc1C(=O)N1[C@H]2CC[C@@H]1c1cnc(-c3ccc(F)cc3)nc1C2,active: 15.8 µM
17,O=[S+]1([O-])NC2(CCN(Cc3ccncc3)C2)COc2ccncc21 (configuration not stated),inactive
18,Cc1nc(-c2ccccc2Br)cc([C@H]2CN3CC[C@H]2C[C@@H]3CNC(=O)NC2CCCCC2)n1,"inconclusive: 89.1 µM [inhibitor, single point]"
19,CN1CCN(C(=O)Cc2c[nH]c3ncc(-c4ccc(F)c(Cl)c4)cc23)CC1,active: 79.4 µM
20,CCCS(=O)(=O)NC[C@H]1C[C@@H]2CCN1C[C@@H]2c1cc(-c2ccccc2)nc(C)n1,"inconclusive: 112 µM [inhibitor, partial curve, poor fit]"
21,CCOC(=O)[C@H]1CN(C(=O)c2cc3ccccc3oc2=O)[C@]2(C)C(=O)N(CCO)c3ccccc3[C@H]12,"inconclusive: 39.8 µM [inhibitor, single point]"
